This data set relates to ATP. Put plainly: switch fluorescence ratio, 500 uM ATP over buffer (Cy3 cluster intensity, sum of 5 cycles each) (fold (ratio)); higher = stronger signal-on switching upon ATP binding; sequences stand for … in TCGTCGGCAGCGTCAGATGTGTATAAGAGACAGTTTTTTTTTTTTTTTTTTTTTTTTT…TC. Particulars: aptamer strand: ATP DNA aptamer (quencher-CACCTGGGGGAGTATTGCGGAGGAAGG + anchor), 100 nM annealed; ATP concentration: 500 uM; one replicate. In outline:
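Cy3-labelled switching-strand clusters on a modified Illumina MiSeq flow-cell were annealed to 100 nM quencher-labelled ATP aptamer and imaged first in selection buffer, then after 15 min with 500 uM ATP at 22 °C. NaOH stripping and re-annealing separated each of five buffer/ATP cycles, and clusters outside 100-1000 RFU were excluded. The fluorescence ratio sums target-cycle Cy3 intensity over buffer-cycle Cy3 intensity per cluster and averages it per switch-domain sequence.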

In the supplement of paper PMC10126150 one finds switch fluorescence ratio data, which are given here for 79 sequences.

Sequences with one replicate were seen in a single cluster, so their values are uncertain.
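Further: ATP exposure 15 min at 22 °C before imaging.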

As to TCTCATTTGG, the switch fluorescence ratio came to 0.982.

As for AAGGAGGAGG, the switch fluorescence ratio was determined as 0.972.

On to TGTATTGTGC, for which the switch fluorescence ratio stood at 0.97.

With TACAGACGGC, the switch fluorescence ratio worked out at 1.41.

Regarding AGGGCAGCAG, the switch fluorescence ratio came to 1.05.

As for ATATACGGC, the switch fluorescence ratio stood at 0.978.

For GCTGATCGGC, the switch fluorescence ratio came out at 0.937.

Take TGTAGTTCGC: the switch fluorescence ratio turned out to be 0.967.

Regarding GGATAGAAGG, the switch fluorescence ratio came out at 1.01.

For the sequence ACTGGATAT, the switch fluorescence ratio was determined as 1.03.

In the case of GAACGGGATC, the switch fluorescence ratio worked out at 1.73.

For TTCGGTGCGG, the switch fluorescence ratio amounted to 0.982.

Consider TTTGACACTT, for which the switch fluorescence ratio amounted to 1.03.

In the case of GGTAGAAAAT, the switch fluorescence ratio was found to be 1.01.

As to CGCAGTAACT, the switch fluorescence ratio is 2.34.

Regarding CTTGCTACTA, the switch fluorescence ratio is 1.06.

On to TCGGGTGTGG, for which the switch fluorescence ratio stood at 1.03.

As for TGTTAGAGAT, the switch fluorescence ratio was 0.966.

Consider ATTGTTTATG, for which the switch fluorescence ratio worked out at 1.01.

As for GCTCAGCCTA, the switch fluorescence ratio was 1.07.

With CAGGAGTTCT, the switch fluorescence ratio was 0.991.

Take CGGAGGCTGC: the switch fluorescence ratio turned out to be 1.04.

Regarding GTGGCAACCC, the switch fluorescence ratio was 0.98.

On to GCGTGAATGT, for which the switch fluorescence ratio was 1.07.

Turning to ACCCCGGCCA, the switch fluorescence ratio stood at 1.08.

As for CACGTTTATT, the switch fluorescence ratio was 0.986.

TTCCGTACGG: the switch fluorescence ratio was found to be 1.03.

With ATTCTCTCGT, the switch fluorescence ratio came to 0.951.

As for TGCCGCGCTT, the switch fluorescence ratio came out at 1.04.

AGTCCTGCTA: the switch fluorescence ratio was 1.01.

For AGGGTTAACC, the switch fluorescence ratio came to 1.02.

As for TTTGATTGCC, the switch fluorescence ratio was determined as 0.992.

With AGGACTCGGT, the switch fluorescence ratio was 0.957.

With TTCTTATGCT, the switch fluorescence ratio was 0.984.

Turning to ACTAATAAAT, the switch fluorescence ratio was determined as 1.

Turning to TAGATGCCAC, the switch fluorescence ratio was 1.03.

In the case of GTTGGGCCTG, the switch fluorescence ratio amounted to 0.996.

For GAGTTTCTCG, the switch fluorescence ratio was found to be 1.01.

In the case of GCCTCAGCTA, the switch fluorescence ratio is 1.6.

With AAGGGCCAGG, the switch fluorescence ratio is 0.987.

With GCATATCGGT, the switch fluorescence ratio is 1.01.

On to GAGAACAAC, for which the switch fluorescence ratio turned out to be 0.99.

For the sequence GAGTAGGGCT, the switch fluorescence ratio came to 0.933.

As for AGCACGAACT, the switch fluorescence ratio is 1.59.

For CATTATAAAC, the switch fluorescence ratio came out at 0.973.

Regarding TACACGTACT, the switch fluorescence ratio came out at 1.68.

Turning to TTCTTACTCA, the switch fluorescence ratio was 1.12.

In the case of TGAAGTGCAT, the switch fluorescence ratio was determined as 0.985.

Turning to ACCAGACAT, the switch fluorescence ratio was 1.08.

For CAGCCCGTG, the switch fluorescence ratio came out at 0.991.

CCCCCTTACT: the switch fluorescence ratio turned out to be 1.58.

For CTCATATATG, the switch fluorescence ratio turned out to be 0.982.

As for TTTTTATAC, the switch fluorescence ratio came to 1.06.

With AGTTTCCCAG, the switch fluorescence ratio came out at 1.07.

For GGCGCTTGCT, the switch fluorescence ratio worked out at 1.01.

As to ATCAGGCTAG, the switch fluorescence ratio worked out at 1.01.

Turning to GTCGGGCCGA, the switch fluorescence ratio is 0.989.

On to GACTAGAGCC, for which the switch fluorescence ratio worked out at 1.08.

Turning to CACGTTGGAC, the switch fluorescence ratio was 1.23.

For CGACGGGATA, the switch fluorescence ratio worked out at 5.57.

Consider GTTCACAACC, for which the switch fluorescence ratio came to 0.971.

For the sequence AAAAAATACC, the switch fluorescence ratio was 1.04.

As to CATCAGGAGA, the switch fluorescence ratio stood at 0.981.

Regarding TCGGGTGTAG, the switch fluorescence ratio is 0.993.

In the case of CTCATTATCC, the switch fluorescence ratio is 1.03.

Turning to AGCCGTGTGA, the switch fluorescence ratio is 1.06.

On to GTGGGTCTTA, for which the switch fluorescence ratio is 1.01.

Turning to TAGGAGAATC, the switch fluorescence ratio worked out at 0.91.

Take GTTCGTTGAG: the switch fluorescence ratio worked out at 1.

Take TAAGTCGGGC: the switch fluorescence ratio came out at 0.977.

On to CTTAGCAGCG, for which the switch fluorescence ratio turned out to be 0.97.

As to TAGGGTACCC, the switch fluorescence ratio was 1.

With CGGGATGAGC, the switch fluorescence ratio was determined as 1.08.

TCTAAGCGTG: the switch fluorescence ratio was 1.01.

As to TACAGTTTGG, the switch fluorescence ratio was 0.938.

For the sequence GAGTGGTAAT, the switch fluorescence ratio turned out to be 1.01.

As to CCTAAACTAC, the switch fluorescence ratio was determined as 1.7.

On to GGCGTTTGGA, for which the switch fluorescence ratio turned out to be 1.01.

Take ATCGATATAA: the switch fluorescence ratio stood at 0.98.
